Experimental findings from PubChem BioAssay AID485344 (National Center for Advancing Translational Sciences (NCATS), 2010) are described below.

Among all 340,000 compounds or so, about 6,900 (2%) were called active. Rule as the data show it: active = inhibition above about 30%; inactive = below that, where a call was filed. The entries are a selection whose mix differs from that of the whole data set. Where no call is shown, the source filed none.

The inhibition is the change of the read-out against control, counted positive when it falls.

Sequence of UniProt P14416 (P14416 whole entry, looked up): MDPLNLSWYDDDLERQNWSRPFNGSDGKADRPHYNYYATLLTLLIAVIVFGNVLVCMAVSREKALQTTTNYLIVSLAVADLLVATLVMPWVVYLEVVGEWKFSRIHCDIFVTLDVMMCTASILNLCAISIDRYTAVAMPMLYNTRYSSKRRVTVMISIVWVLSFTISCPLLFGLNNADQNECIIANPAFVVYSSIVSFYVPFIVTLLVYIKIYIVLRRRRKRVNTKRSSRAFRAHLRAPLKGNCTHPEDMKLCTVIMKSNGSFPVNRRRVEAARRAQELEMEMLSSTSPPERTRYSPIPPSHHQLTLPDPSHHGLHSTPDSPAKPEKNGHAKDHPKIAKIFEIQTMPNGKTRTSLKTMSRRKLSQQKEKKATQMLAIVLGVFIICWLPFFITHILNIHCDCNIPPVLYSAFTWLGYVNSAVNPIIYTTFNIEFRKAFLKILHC

The assay concerns the target D(2) dopamine receptor (Homo sapiens) (UniProt P14416). The assay can be described thus: HTS Assay for Allosteric Antagonists of the Human D2 Dopamine Receptor: Primary Screen for Antagonists. Also: 0% is about no effect. Conditions: HEK293 TREx D2 cells, calcium flux, dopamine EC80; at 10 µM; stronger effect = higher value. The method in brief:
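Tetracycline-induced HEK293 TREx cells expressing D2 receptor forced-coupled to calcium signalling, loaded with no-wash calcium dye. Compounds added and calcium flux read 180 s, then dopamine added at EC80 and read a further 180 s.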
For orientation: Calcium flux is commonly read through the fluorescence of an indicator in the cells.
In the case of `COc1ccc(NC(=O)CSc2nnc(-c3ccc(OC)cc3)s2)cc1`, the inhibition came to 7.92%. The result for `Cc1ccc(Nc2nc3ccc(C)cc3nc2-n2nc(C)cc2C)c(C)c1` reads 5.01%. In the case of `CCOC(=O)C(C)(C)Sc1nc2c(cnn2-c2ccc(C)cc2)c(=O)[nH]1`, the inhibition is active: 47.8%. The result for `CC(C)C(=O)Nc1nnc(S(=O)(=O)N2CCCCCC2)s1` reads 13.5%. Regarding `COc1ccc(Cl)cc1NC(=O)CN(C)C(=O)CCC(=O)c1cc(C)sc1C`, the inhibition was active: 62.5%. Next, `COCCNC(=O)C1CCC(CNS(=O)(=O)c2ccc3c(c2)CC(C)N3C(C)=O)CC1` (stereo unspecified): 9.61%; `O=C(C1COc2ccccc2O1)N1CCN(c2nc3c(F)cccc3s2)CC1` (stereo unspecified): -11.3%; `COc1ccc(N(CC(=O)NCc2ccccc2Cl)S(=O)(=O)c2c(C)[nH]c(=O)[nH]c2=O)cc1`: 0.259%. Take `Cc1cc(C)c(S(=O)(=O)NCCc2cc3cc(C)c(C)cc3[nH]c2=O)c(C)c1`: the inhibition amounted to 15.2%. Next, `Cc1ccc(NC(=O)NCc2ccccn2)cc1`: active: 59.3%; `O=S(=O)(NCCc1nnc2ccc(SCc3ccc(C(F)(F)F)cc3)nn12)c1ccccc1`: 1.3%. On to `Cc1oc2ccc(O)c(CN3CCN(Cc4ccccc4)CC3)c2c1C(=O)Nc1ccccc1`, for which the inhibition was -2.38%. The result for `COc1cccc(OC)c1OCC(O)CN1CCN(c2ccccc2F)CC1` (stereo unspecified) reads active: 85.7%; that for `CN(C)c1ccc(CNC(=O)CN2C(=O)c3cccnc3Oc3ccc(Cl)cc32)cc1`, -13.9%. The result for `CN(C)CCN(Cc1cc2cc3c(cc2[nH]c1=O)OCCO3)C(=S)NCC1CCCO1` (stereo unspecified) reads active: 40.8%. The result for `N#Cc1ccccc1Cn1c(=O)n(CCCC(=O)NCc2ccc3c(c2)OCO3)c(=O)c2sccc21` reads -11.5%.

Consider `Cc1ccc(NC(=O)C2CCCN(c3nnc(-n4c(C)ccc4C)s3)C2)c(C)c1` (stereo unspecified), for which the inhibition stood at 2.81%.

As to `CCCC(C(=O)NCc1cccc(Cl)c1)N1Cc2ccccc2C1=O` (stereo unspecified), the inhibition was -1.22%. The result for `CCCN(CCC)C(=O)Cn1c(=O)n(-c2cccc(OC)c2)c(=O)c2c3c(sc21)CCCC3` reads 15%; that for `Cc1ccn2c(=O)cc(COc3ccc(NC(=O)COc4ccc(Cl)cc4)cc3)nc2c1`, -5.13%. Next, `O=C(CCCCn1c(=O)c2ccccc2n(Cc2ccccc2Cl)c1=O)NCCc1ccccc1`: 9.45%; `Cc1csc2nc(COC(=O)c3cccc(NC(=O)COc4ccc(Cl)cc4)c3)cc(=O)n12`: -1.46%. The result for `CCc1nnc(SCC(=O)Nc2ccccc2Cl)nc1CC` reads -17.7%; that for `CN(CC(=O)NC1CCN(Cc2ccccc2)CC1)S(=O)(=O)c1ccc(Cl)s1`, active: 68.5%. As to `CCc1ccc(NCc2cc3cc4c(cc3n(CC(=O)Nc3cccc(OC)c3)c2=O)OCO4)cc1`, the inhibition worked out at 11.9%.

For the compound `COCCNC(=O)Cn1nc(C)c2c(C)n(-c3ccc(C)cc3)nc2c1=O`, the inhibition is -9.61%.
